# The list shows a part of the results.
# B1: EULS2 M4 (Oryza sativa) (protein)
# chain: MVYCRANPNYAMTARNGAVVLAPANPKDEYQHWIKDMRWSTSIKDEEGYPAFALVNKATGQAIKHSLGQSHPVRLVPYNPEVMDESVLWTESRDVGNGFRCIRMVNNIYLNFDAFHGDKYHGGVRDGTDIVLWKWCEGDSLRWKIQPYYILEQKLISEEDLNSAVDHHHHHH
# Columns and labels:
# Test in all cases: glycan array binding signal (z-score within array); higher = stronger binding
# Details in all cases: glycan notation: IUPAC condensed, linker removed
# Fuc(a1-2)Gal = target: Fuc(a1-2)Gal
# Method in brief: (§1)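 The binding signal is a Z-score computed within each array and averaged over linkers. Arrays of the same protein sequence at different concentrations or buffers were also averaged together. Data originate from 3228 arrays in the Consortium for Functional Glycomics database, kept only where the protein sequence was available.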
# Fuc(a1-2)Gal(b1-3)GalNAc = target: Fuc(a1-2)Gal(b1-3)GalNAc
# Method in brief: as §1
# [1] = target: Fuc(a1-2)Gal(b1-3)GalNAc(a1-3)[Fuc(a1-2)]Gal(b1-4)Glc
# Method in brief: as §1
# [2] = target: Fuc(a1-2)Gal(b1-3)GalNAc(a1-3)[Fuc(a1-2)]Gal(b1-4)GlcNAc
# Method in brief: as §1
# [3] = target: Fuc(a1-2)Gal(b1-3)GalNAc(b1-3)Gal
# Method in brief: as §1
# [4] = target: Fuc(a1-2)Gal(b1-3)GalNAc(b1-3)Gal(a1-4)Gal(b1-4)Glc
# Method in brief: as §1
# [5] = target: Fuc(a1-2)Gal(b1-3)GalNAc(b1-4)[Neu5Ac(a2-3)]Gal(b1-4)Glc
# Method in brief: as §1
# Fuc(a1-2)Gal(b1-3)GlcNAc = target: Fuc(a1-2)Gal(b1-3)GlcNAc
# Method in brief: as §1
# [6] = target: Fuc(a1-2)Gal(b1-3)GlcNAc(b1-2)Man(a1-3)[Fuc(a1-2)Gal(b1-3)GlcNAc(b1-2)Man(a1-6)]Man(b1-4)GlcNAc(b1-4)GlcNAc
# Method in brief: as §1
# [7] = target: Fuc(a1-2)Gal(b1-3)GlcNAc(b1-2)Man(a1-3)[Fuc(a1-2)Gal(b1-3)GlcNAc(b1-2)Man(a1-6)]Man(b1-4)GlcNAc(b1-4)[Fuc(a1-6)]GlcNAc
# Method in brief: as §1
# [8] = target: Fuc(a1-2)Gal(b1-3)GlcNAc(b1-3)Gal(b1-4)Glc
# Method in brief: as §1
# [9] = target: Fuc(a1-2)Gal(b1-3)GlcNAc(b1-3)GalNAc
# Method in brief: as §1
# [10] = target: Fuc(a1-2)Gal(b1-3)GlcNAc(b1-3)[Fuc(a1-2)Gal(b1-3)GlcNAc(b1-6)]GalNAc
# Method in brief: as §1
# [11] = target: Fuc(a1-2)Gal(b1-3)GlcNAc(b1-3)[Gal(b1-4)GlcNAc(b1-6)]Gal(b1-4)Glc
# Method in brief: as §1
# [12] = target: Fuc(a1-2)Gal(b1-3)GlcNAc(b1-3)[Neu5Ac(a2-6)Gal(b1-4)GlcNAc(b1-6)]Gal(b1-4)Glc
# Method in brief: as §1
# [13] = target: Fuc(a1-2)Gal(b1-3)GlcNAc6S
# Method in brief: as §1
# [14] = target: Fuc(a1-2)Gal(b1-3)[Fuc(a1-4)]GlcNAc
# Method in brief: as §1
# [15] = target: Fuc(a1-2)Gal(b1-3)[Fuc(a1-4)]GlcNAc(b1-2)Man(a1-3)[Fuc(a1-2)Gal(b1-3)[Fuc(a1-4)]GlcNAc(b1-2)Man(a1-3)]Man(b1-4)GlcNAc(b1-4)GlcNAc
# Method in brief: as §1
# [16] = target: Fuc(a1-2)Gal(b1-3)[Fuc(a1-4)]GlcNAc(b1-2)Man(a1-3)[Fuc(a1-2)Gal(b1-3)[Fuc(a1-4)]GlcNAc(b1-2)Man(a1-6)]Man(b1-4)GlcNAc(b1-4)[Fuc(a1-6)]GlcNAc(b1-4)[Fuc(a1-6)]GlcNAc
# Method in brief: as §1
# [17] = target: Fuc(a1-2)Gal(b1-3)[Fuc(a1-4)]GlcNAc(b1-3)[Fuc(a1-3)[Gal(b1-4)]GlcNAc(b1-6)]Gal(b1-4)Glc
# Method in brief: as §1
# [18] = target: Fuc(a1-2)Gal(b1-3)[Fuc(a1-4)]GlcNAc(b1-3)[Gal(b1-4)GlcNAc(b1-6)]Gal(b1-4)Glc
# Method in brief: as §1
# Fuc(a1-2)Gal(b1-4)Glc = target: Fuc(a1-2)Gal(b1-4)Glc
# Method in brief: as §1
# Fuc(a1-2)Gal(b1-4)Glc6S = target: Fuc(a1-2)Gal(b1-4)Glc6S
# Method in brief: as §1
# Fuc(a1-2)Gal(b1-4)GlcNAc = target: Fuc(a1-2)Gal(b1-4)GlcNAc
# Method in brief: as §1
# [19] = target: Fuc(a1-2)Gal(b1-4)GlcNAc(b1-2)Man
# Method in brief: as §1
# [20] = target: Fuc(a1-2)Gal(b1-4)GlcNAc(b1-2)Man(a1-3)[Fuc(a1-2)Gal(b1-4)GlcNAc(b1-2)Man(a1-6)]Man(b1-4)GlcNAc(b1-4)GlcNAc
# Method in brief: as §1
# [21] = target: Fuc(a1-2)Gal(b1-4)GlcNAc(b1-2)Man(a1-3)[Fuc(a1-2)Gal(b1-4)GlcNAc(b1-2)Man(a1-6)]Man(b1-4)GlcNAc(b1-4)[Fuc(a1-6)]GlcNAc
# Method in brief: as §1
# [22] = target: Fuc(a1-2)Gal(b1-4)GlcNAc(b1-2)[Fuc(a1-2)Gal(b1-4)GlcNAc(b1-4)]Man(a1-3)[Fuc(a1-2)Gal(b1-4)GlcNAc(b1-2)Man(a1-6)]Man(b1-4)GlcNAc(b1-4)GlcNAc
# Method in brief: as §1
# [23] = target: Fuc(a1-2)Gal(b1-4)GlcNAc(b1-3)Gal(b1-4)GlcNAc
# Method in brief: as §1
# [24] = target: Fuc(a1-2)Gal(b1-4)GlcNAc(b1-3)Gal(b1-4)GlcNAc(b1-2)Man(a1-3)[Fuc(a1-2)Gal(b1-4)GlcNAc(b1-3)Gal(b1-4)GlcNAc(b1-2)Man(a1-6)]Man(b1-4)GlcNAc(b1-4)GlcNAc
# Method in brief: as §1
binder,measurement,setting,value
B1,glycan array binding signal (z-score),Fuc(a1-2)Gal,0.398
same,glycan array binding signal (z-score),Fuc(a1-2)Gal(b1-3)GalNAc,-0.317
same,glycan array binding signal (z-score),[1],-0.362
same,glycan array binding signal (z-score),[2],-0.405
same,glycan array binding signal (z-score),[3],0.371
same,glycan array binding signal (z-score),[4],-0.236
same,glycan array binding signal (z-score),[5],-0.276
same,glycan array binding signal (z-score),Fuc(a1-2)Gal(b1-3)GlcNAc,-0.073
same,glycan array binding signal (z-score),[6],0.444
same,glycan array binding signal (z-score),[7],0.367
same,glycan array binding signal (z-score),[8],-0.293
same,glycan array binding signal (z-score),[9],-0.542
same,glycan array binding signal (z-score),[10],-0.233
same,glycan array binding signal (z-score),[11],-0.123
same,glycan array binding signal (z-score),[12],-0.398
same,glycan array binding signal (z-score),[13],0.453
same,glycan array binding signal (z-score),[14],-0.403
same,glycan array binding signal (z-score),[15],0.146
same,glycan array binding signal (z-score),[16],0.681
same,glycan array binding signal (z-score),[17],0.066
same,glycan array binding signal (z-score),[18],-0.039
same,glycan array binding signal (z-score),Fuc(a1-2)Gal(b1-4)Glc,0.003
same,glycan array binding signal (z-score),Fuc(a1-2)Gal(b1-4)Glc6S,-0.377
same,glycan array binding signal (z-score),Fuc(a1-2)Gal(b1-4)GlcNAc,-0.089
same,glycan array binding signal (z-score),[19],0.636
same,glycan array binding signal (z-score),[20],-0.027
same,glycan array binding signal (z-score),[21],-0.19
same,glycan array binding signal (z-score),[22],0.045
same,glycan array binding signal (z-score),[23],-0.01
same,glycan array binding signal (z-score),[24],-0.437
